In assay [1] the target is T1, CXCR4-VN (human, UniProt P61073 1-352).
T1 construct: whole, on cells; Adenovirus-expressed in U-2 OS cells; also called CXCR4 fused with N-terminal fragment of Venus; not shown: VNm10, N-terminal fragment of Venus (VN154 variant with L46F and L64F)
In words: BiFC, U-2 OS cells, CXCR4-VN & GPCRx-VC; score=(positive cells/total cells)x100.

Assay [2] has as its target T1, CXCR4-VN. The assay is described as above. This is another data set of the same source.

Read-outs that look alike come from different tables or passages of the source.

B1: MLNR-VC (receptor, human, UniProt O43193 1-412, looked up)
chain: MGSPWNGSDGPEGAREPPWPALPPCDERRCSPFPLGALVPVTAVCLCLFVVGVSGNVVTVMLIGRYRDMRTTTNLYLGSMAVSDLLILLGLPFDLYRLWRSRPWVFGPLLCRLSLYVGEGCTYATLLHMTALSVERYLAICRPLRARVLVTRRRVRALIAVLWAVALLSAGPFLFLVGVEQDPGISVVPGLNGTARIASSPLASSPPLWLSRAPPPSPPSGPETAEAAALFSRECRPSPAQLGALRVMLWVTTAYFFLPFLCLSILYGLIGRELWSSRRPLRGPAASGRERGHRQTVRVLLVVVLAFIICWLPFHVGRIIYINTEDSRMMYFSQYFNIVALQLFYLSASINPILYNLISKKYRAAAFKLLLARKSRPRGFHRSRDTAGEVAGDTGGDTVGYTETSANVKTMG
notes: whole, on cells; Adenovirus-expressed in U-2 OS cells; not shown: VC155, C-terminal fragment of Venus
In the case of B1, the BiFC score with CXCR4-VN [1] was determined as 10.

B2: HRH1-VC (receptor, human, UniProt P35367 1-487, looked up)
chain: MSLPNSSCLLEDKMCEGNKTTMASPQLMPLVVVLSTICLVTVGLNLLVLYAVRSERKLHTVGNLYIVSLSVADLIVGAVVMPMNILYLLMSKWSLGRPLCLFWLSMDYVASTASIFSVFILCIDRYRSVQQPLRYLKYRTKTRASATILGAWFLSFLWVIPILGWNHFMQQTSVRREDKCETDFYDVTWFKVMTAIINFYLPTLLMLWFYAKIYKAVRQHCQHRELINRSLPSFSEIKLRPENPKGDAKKPGKESPWEVLKRKPKDAGGGSVLKSPSQTPKEMKSPVVFSQEDDREVDKLYCFPLDIVHMQAAAEGSSRDYVAVNRSHGQLKTDEQGLNTHGASEISEDQMLGDSQSFSRTDSDTTTETAPGKGKLRSGSNTGLDYIKFTWKRLRSHSRQYVSGLHMNRERKAAKQLGFIMAAFILCWIPYFIFFMVIAFCKNCCNEHLHMFTIWLGYINSTLNPLIYPLCNENFKKTFKRILHIRS
notes: as for B1
In the assay with CXCR4-VN [1], B2 had a BiFC score of 45.

B3: SSTR2-VC (receptor, human, UniProt P30874 1-369, looked up)
chain: MDMADEPLNGSHTWLSIPFDLNGSVVSTNTSNQTEPYYDLTSNAVLTFIYFVVCIIGLCGNTLVIYVILRYAKMKTITNIYILNLAIADELFMLGLPFLAMQVALVHWPFGKAICRVVMTVDGINQFTSIFCLTVMSIDRYLAVVHPIKSAKWRRPRTAKMITMAVWGVSLLVILPIMIYAGLRSNQWGRSSCTINWPGESGAWYTGFIIYTFILGFLVPLTIICLCYLFIIIKVKSSGIRVGSSKRKKSEKKVTRMVSIVVAVFIFCWLPFYIFNVSSVSMAISPTPALKGMFDFVVVLTYANSCANPILYAFLSDNFKKSFQNVLCLVKVSGTDDGERSDSKQDKSRLNETTETQRTLLNGDLQTSI
notes: as for B1
As for B3, the BiFC score in the assay with CXCR4-VN [1] and in the assay with CXCR4-VN [2] was 30 each time.

B4: PTGER2-VC (receptor, human, UniProt P43116 1-358, looked up)
chain: MGNASNDSQSEDCETRQWLPPGESPAISSVMFSAGVLGNLIALALLARRWRGDVGCSAGRRSSLSLFHVLVTELVFTDLLGTCLISPVVLASYARNQTLVALAPESRACTYFAFAMTFFSLATMLMLFAMALERYLSIGHPYFYQRRVSRSGGLAVLPVIYAVSLLFCSLPLLDYGQYVQYCPGTWCFIRHGRTAYLQLYATLLLLLIVSVLACNFSVILNLIRMHRRSRRSRCGPSLGSGRGGPGARRRGERVSMAEETDHLILLAIMTITFAVCSLPFTIFAYMNETSSRKEKWDLQALRFLSINSIIDPWVFAILRPPVLRLMRSVLCCRISLRTQDATQTSCSTQSDASKQADL
notes: as for B1
Turning to B4, in the assay with CXCR4-VN [1], the BiFC score came to 58.

The record behind these values is patent US20190183976A1 (GPCR THERAPEUTICS, published 2019).
